Data as given in PubChem BioAssay AID1345082 (National Center for Advancing Translational Sciences (NCATS), 2018).
“And” between values parts separate entries of the source, which are not always exact repeats. Equal values may be shown once. About 4,000 (4.3%) of roughly 94,000 compounds were called active. This list was built around the results that the source calls inconclusive (neither active nor inactive); the mix of calls is not that of the screen. Calls follow the shape of the dose curve; as a rule, active = well fitted inhibition curve with a large enough effect; inconclusive = small, poorly fitted or top-dose-only effect; inactive = no such curve, though single readings can be large or run the other way. Potencies of inconclusive entries are doubtful fits and often do not repeat.

Experiment: Cytotoxic Profiling in NIH 3T3 Cell Line of Diverse Libraries Using Quantitative High-Throughput Screening; also: nearly all actives have a fitted effect of over 55% in size
Settings: NIH 3T3 viability, CellTiter-Glo ATP luminescence, 48-72 h; activity change, negative = cytotoxicity: at 96.7 µM (top of the series); series mostly up to 96.7 µM
Method in brief: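 Cytotoxicity is measured as loss of cellular ATP: NIH 3T3 cells (400/well) are exposed to compound for 48 or 72 hr at 37 °C, then CellTiter-Glo luminescence is imaged after 10 min at room temperature.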
% is scaled to controls: 0 for no effect and ±100 for the full control effect; potency is read from the fitted curve at half-maximal effect; tags tell the direction and shape of the fitted curve.

Row | Compound | Potency | activity change, negative = cytotoxicity
1 | O=C(Cn1ccn2nc(-c3ccc(F)cc3)c(CO)c2c1=O)NCCCc1ccccc1 | inconclusive: 70.8 µM [inhibitor, single point] | –
2 | CNC(=O)c1cc(C2CC2)nc2onc(C3CCN([S+](=O)([O-])c4ccc(C)cc4)C3)c12 (configuration not stated) | inconclusive: 28.2 µM [inhibitor, partial curve] | –
3 | COc1ccc(OCc2cc(C(=O)N3C[C@H]4CC[C@H]3C4)n[nH]2)c(Cl)c1 | inconclusive: 79.4 µM [inhibitor, partial curve, poor fit] | –
4 | Cc1ccccc1C(=O)N(C)Cc1ccc(-c2ccccc2)cc1 | active: 50.1 µM | –
5 | Cc1cc(OC2CN(Cc3ccc(C#N)cc3)C2)ccc1F | inconclusive: 79.4 µM [inhibitor, partial curve] | –
6 | CCc1cccc2c(C(CC(=O)NCCc3ccccc3)c3cccc4c3OCO4)c[nH]c12 (configuration not stated) | active: 17.8 µM | –
7 | O=c1[nH]c(C2CCCN(Cc3cccc(Cl)c3)C2)nc2ccc(F)cc12 (configuration not stated) | inconclusive: 28.2 µM [inhibitor, partial curve] and inconclusive: 28.2 µM [inhibitor, full curve, poor fit] | –
8 | Cc1ccccc1C(=O)NC1CCN(c2ccc3nnc(C4CC4)n3n2)CC1 | inconclusive: 35.5 µM [inhibitor, partial curve, poor fit] | –
9 | COc1ccc(-c2cn(C)c(=O)n3cc(CN4CCNC(=O)C4)nc23)cc1 | inconclusive: 56.2 µM [inhibitor, partial curve, poor fit] | –
10 | CC(C)c1cccc(NC(=O)c2cc3n(n2)CC(c2ccc(Cl)cc2)OC3)c1 (configuration not stated) | – | inactive: -29.3%
11 | Cc1nn(-c2ccccc2)c2c1C(C1CC1)N(CC1CN(C(=O)c3ccccc3)C1)C2=O (configuration not stated) | inconclusive: 44.7 µM [inhibitor, partial curve, poor fit] | –
12 | Cc1ccnc(NC(=O)C2CC(=O)N(c3n[nH]c4ccccc34)C2)c1 (configuration not stated) | inconclusive: 56.2 µM [inhibitor, partial curve, poor fit] | –
13 | C#CCN(Cc1ccco1)Cc1cnc(S(C)(=O)=O)n1CCCc1ccccc1 | inconclusive: 79.4 µM [inhibitor, partial curve, poor fit] | –
14 | Cc1ccc(NC(=O)c2cn3cc(-c4ccccc4)sc3n2)cc1 | – | inactive: -30% [at 138 µM]
15 | Cc1nn(-c2ccccc2)c2c1C(C(C)C)N(C1CCN([S+](=O)([O-])c3cccc(C(F)(F)F)c3)C1)C2=O (configuration not stated) | inconclusive: 44.7 µM [inhibitor, partial curve, poor fit] | –
16 | Cc1nn(-c2ccccc2)c(Oc2ccccc2F)c1CCC(=O)NCC(C)C | inconclusive: 50.1 µM [inhibitor, partial curve, poor fit] | –

Row | Compound | Potency | activity change, negative = cytotoxicity
17 | COc1cccc(CN2Cc3nc(-c4ccsc4)ccc3OCC2=O)c1 | inconclusive: 50.1 µM [inhibitor, partial curve, poor fit] | –
18 | COc1ccc(-c2cccc(C(=O)N3CCN([S+](=O)([O-])c4ccc(C)cc4)CC3)c2)nn1 | inconclusive: 50.1 µM [inhibitor, partial curve, poor fit] | –
19 | Cc1noc(-c2cccs2)c1C(=O)NCCc1cccs1 | – | inactive: -26.9%
20 | COCC(=O)N1CC(C(=O)NCCc2ccc(OC)cc2)CC(c2ccc(F)c(C)c2)C1 (configuration not stated) | inconclusive: 44.7 µM [inhibitor, partial curve, poor fit] | –
21 | CNC(=O)C1CCN(Cc2ccccc2-c2ccccc2F)CC1 | inconclusive: 100 µM [inhibitor, partial curve, poor fit] | –
22 | COc1ccc(Cn2c(C3CCN(C(=O)c4ccc(C(C)(C)C)cc4)CC3)n[nH]c2=O)cc1 | inconclusive: 44.7 µM [inhibitor, partial curve, poor fit] | –
23 | N#Cc1cccc(N2CCC3(CCC(=O)N(CC4CCCO4)C3)CC2)n1 (configuration not stated) | – | inactive: -19%
24 | COc1cccc(-c2ccc(CN3CCCC(NC(=O)c4ccc(Cl)cc4)C3)cc2)c1 (configuration not stated) | inconclusive: 79.4 µM [inhibitor, partial curve, poor fit] | –
25 | Cc1onc(-c2cnn(C)c2NCc2ccc(C#N)cc2)c1C(=O)NCC(C)C | inconclusive: 100 µM [inhibitor, partial curve, poor fit] | –
26 | COCCc1noc([C@@H]2CC(F)(F)CN2C(=O)c2cnc(C)cn2)n1 | – | inactive: -8.95%
27 | CSc1ccc(-c2cccc(C(=O)NCCNC(=O)Nc3ccc(Cl)cc3)c2)cc1 | inconclusive: 56.2 µM [inhibitor, partial curve, poor fit] | –
28 | COc1ccc2c(c1)CCCN2C1CNC1 | – | inactive: 1.3% [at 174 µM]
29 | COc1ccc(C2(C(=O)N(C)Cc3ccc4c(c3)OCO4)CCOCC2)cc1 | inconclusive: 56.2 µM [inhibitor, single point] | –
30 | Cc1nn2c(c1-c1ccccc1Oc1ccccc1)N(Cc1ccc(C(=O)O)cc1)CCC2 | active: 25.1 µM | –
31 | O=C(NCCc1cccs1)c1cccc2c1CCN2C(=O)Nc1ccccc1 | inconclusive: 44.7 µM [inhibitor, partial curve, poor fit] | –
32 | Cc1nc(-c2ccc(F)cc2)n(CC(=O)Nc2cccc(Cl)c2)c(=O)c1CCO | inconclusive: 35.5 µM [inhibitor, partial curve] | –
